Molecules are shown by their SMILES. The campaign covered roughly 48,000 compounds. About 120 (0.25%) were called active. Inconclusive results (about 4%) are left out. Calls come from the whole dose curve; as a rule, active = well fitted activation curve with a large enough effect; inconclusive = small, poorly fitted or top-dose-only effect, or another doubt; inactive = no such curve, though single readings can be large or run the other way. This is one part of the list.

A short description of the experiment: Primary qHTS for Identification of Small Molecule Activators of Huntingtin-Antisense Promoter Activity. Note: nearly all actives have a fitted effect of over 55% in size. The note with it: HEK293 HTT-AS promoter firefly luciferase reporter, 24 h; series mostly up to 57.5 µM; activity change, positive = activation: at the top concentration. In outline:
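HEK293 Fluc reporter, 2,500 cells/well, 24 h pre-culture; cpds up to 57.5 uM final, 24 h 37 degrees C; Dual-Glo, 10 min RT; normalized vehicle = 0%, zero RLU = -100%.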
A general note: Quantitative high-throughput screening tests each substance at several concentrations.
With `COc1ccc(-c2noc(COc3ccc(Br)cc3C)n2)cc1OC`, the “activity change, positive = activation” value is inactive: -10%. To `CCc1ccccc1NC(=O)Cn1c(=O)n(Cc2ccco2)c(=O)c2sc3ccccc3c21` belongs inactive: -13.6%; to `Cc1ccc(NC(=O)Cn2c(=O)n(Cc3ccc4c(c3)OCO4)c(=O)c3ccccc32)c(C)c1`, inactive: -9.21%; to `Cc1ccc(C)c(N2CCN(S(=O)(=O)c3cnc(N)nc3)CC2)c1`, inactive: -24.5%. The figure for `Cc1ccc2nc(N3CCN(c4cccc(C)c4C)CC3)c3nncn3c2c1` is inactive: -3.8%. On to `CCOC(=O)c1ccc2c(c1)N(Cc1ccccc1)C(=O)c1ccccc1S2`, for which the “activity change, positive = activation” value is inactive: -21%. The figure for `CC(C)CCn1c(=O)c2sccc2n2c(CCCC(=O)NC3CCC(C)CC3)nnc12` (stereo not drawn) is inactive: -13.7%. On to `CCCCc1ccc(NC(=O)CSc2nc3ccccc3nc2N2CCOCC2)cc1`, for which the “activity change, positive = activation” value was inactive: -10.2%.

For the compound `O=C(Nc1cc(Cl)cc(Cl)c1)c1ccc(F)c(S(=O)(=O)NC2CCCCC2)c1`, the “activity change, positive = activation” value is inactive: -36.3%. Take `O=C(NCCS(=O)(=O)N1CCN(c2ccc(F)cc2)CC1)C1CC(=O)N(c2ccc(F)cc2)C1` (stereo not drawn): the “activity change, positive = activation” value was inactive: 10.8%. To `COc1ccc(CCNC(=O)CCSCc2ccccc2Cl)cc1OC` belongs inactive: 1.22%; to `CC(C)c1ccc2oc(-c3ccc(NC(=O)c4cc5ccccc5o4)cc3)nc2c1`, inactive: -2.64%. To `Cc1cccc(OCC(=O)N(Cc2ccccc2)c2ccccn2)c1` belongs inactive: -18.5%; to `COc1ccc(CCNC(=O)c2ccc3c(Cl)c4c(nc3c2)CCCC4)c(OC)c1`, inactive: -36.8%. Consider `COC(=O)c1cnc(N2CCN(c3ccc(F)cc3)CC2)c2ccccc12`, for which the “activity change, positive = activation” value is inactive: -5.25%. The figure for `CS(=O)(=O)N1CCCc2cc(C(=O)Nc3cccc(C(F)(F)F)c3)ccc21` is inactive: -39.5%; for `CC1CCC(NC(=O)c2ccc(CS(=O)(=O)c3c(Cl)cccc3Cl)o2)CC1` (stereo not drawn) it is inactive: -32.9%. As for `COc1ccc(OCC(=O)Nc2ccccc2C(=O)OCc2cc(=O)n3nc(C)sc3n2)cc1`, the “activity change, positive = activation” value was inactive: -4.41%. For the compound `COc1cc(-c2nc(-c3cccc(Cl)c3)c(-c3ccccc3)[nH]2)cc(OC)c1OC`, the “activity change, positive = activation” value is inactive: -29.7%.

In the case of `O=C(NCCN1CCCCC1)c1ccc(Cn2c(SCc3cccc(F)c3)nc3cccnc32)cc1`, the “activity change, positive = activation” value is inactive: -3.96%. In the case of `COC(=O)c1ccc(CSc2nc3c(c(=O)[nH]2)CCC3)cc1`, the “activity change, positive = activation” value is inactive: -4.49%. The figure for `COc1ccc(S(=O)(=O)c2c(SC)nn(CC(=O)Nc3cccc(C)c3C)c2N)cc1` is inactive: -17.9%. The figure for `Cc1ccc2c(c1)NC(=O)c1cccnc1O2` is inactive: -7.41%; for `Cc1ccc(-c2nc(CS(=O)(=O)CC(=O)NCCc3ccccc3)c(C)o2)cc1` it is inactive: -9.98%. The figure for `COc1ccc(CNC(=O)Cn2nc(N3CCN(c4ccccc4)CC3)ccc2=O)c(OC)c1` is inactive: -6.45%; for `CC1=C(C(=O)Nc2ccccc2)C(c2ccncc2)n2nc(SCc3ccccc3F)nc2N1` (stereo not drawn) it is inactive: -3.88%. Turning to `CCC(C)Nc1oc(-c2ccc(COc3ccc(Cl)cc3)o2)nc1C#N` (stereo not drawn), the “activity change, positive = activation” value is inactive: -38%. Regarding `O=C(Nc1ccc(OCc2cc(=O)n3ccccc3n2)cc1)c1ccccc1Cl`, the “activity change, positive = activation” value was inactive: 22.4%. Consider `Cc1cccc(OCC(O)Cn2c(=N)n(CCN3CCCCC3)c3ccccc32)c1` (stereo not drawn), for which the “activity change, positive = activation” value is inactive: -20.6%. The figure for `CCc1ccc(CN(Cc2ccco2)C(=O)COc2ccc(Cl)c(C)c2)cc1` is inactive: -15.3%. To `CCn1cc(C(=O)NCc2ccc(C)cc2)c(=O)c2cc(S(=O)(=O)N(C)C3CCCCC3)ccc21` belongs inactive: 0.145%; to `CCC(C)NC(=O)CSc1nc2c(sc3ccccc32)c(=O)n1CCc1ccc(OC)c(OC)c1` (stereo not drawn), inactive: -5.49%. The figure for `CCN(CC)c1nc2c(S(=O)(=O)c3cccc(Cl)c3)nnn2c2ccsc12` is inactive: -41.3%; for `Cc1cc(C)n(-c2nc3cc(Cl)ccc3nc2Nc2ccc(CC(=O)O)cc2)n1` it is inactive: -2.24%; for `COc1ccc2nc(NC(=O)c3nc(SCc4ccccc4F)ncc3Cl)sc2c1` it is inactive: 18.8%. In the case of `COc1ccccc1CNC(=O)C1CCN(S(=O)(=O)c2ccc3c(ccn3C)c2)CC1`, the “activity change, positive = activation” value is inactive: -7.75%. The figure for `CCCCn1c(NCc2cc(Br)ccc2O)nc2ccccc21` is inactive: -40.9%; for `COC(=O)c1c(-c2cccs2)csc1NC(=O)c1ccc(OC)c(OC)c1` it is inactive: 9.04%. Turning to `CCNC(=O)C1CCN(c2nnc(C)c3c(C)n(-c4ccc(OC)cc4)nc23)CC1`, the “activity change, positive = activation” value is inactive: -0.616%.

Regarding `Cc1cccc(NC(c2ccccc2C)c2ccc3ccc(C)nc3c2O)n1` (stereo not drawn), the “activity change, positive = activation” value was inactive: -30.7%. Regarding `CCOC(=O)CSc1nc(-c2ccc(Cl)cc2)cc(C(F)(F)F)c1C#N`, the “activity change, positive = activation” value is inactive: -11.6%. Consider `Cc1ccc(C(=O)Oc2c(S(=O)(=O)c3ccccc3)c(C)nn2-c2ccccc2)cc1`, for which the “activity change, positive = activation” value is inactive: -16%. With `CN1C(=O)c2ccccc2Sc2ccc(NC(=O)NCc3cccc(Cl)c3)cc21`, the “activity change, positive = activation” value is inactive: -37.8%. The figure for `Cc1ccc(NC(=O)CCNS(=O)(=O)c2cccc3nonc23)cc1Cl` is inactive: -14.4%. Turning to `Cc1cn2c(=O)cc(COC(=O)c3cccc(NC(=O)COc4ccccc4C)c3)nc2s1`, the “activity change, positive = activation” value is inactive: -10.2%. The figure for `Cc1ccc(Cc2nc3ccccc3nc2SCC(=O)N2CCCc3ccccc32)cc1` is inactive: -1.4%; for `COc1ccc(-n2c(-c3ccc(C)cc3)cc3c2CC(C)(C)CC3=O)c(OC)c1` it is inactive: -35.5%; for `Cc1ccccc1N1C(=O)c2cc(S(N)(=O)=O)c(Cl)cc2NC1C` (stereo not drawn) it is “inactive”. Turning to `Cc1ccccc1C(=O)NCCc1csc(-c2ccc(C(F)(F)F)cc2)n1`, the “activity change, positive = activation” value was inactive: -32.2%.

Regarding `CCCNC(=O)C(C)n1nc(C)c2c(C)n(-c3ccccc3)nc2c1=O` (stereo not drawn), the “activity change, positive = activation” value is inactive: -32%.

For the compound `Cc1ccc(CNC(=O)CSc2c3c(nc4cc(Cl)ccc24)CCCC3)cc1`, the “activity change, positive = activation” value is inactive: -16.7%. The entry for `CC[C@H](NC(C)C)[C@H](O)c1ccc(O)c2[nH]c(=O)ccc12` is “inactive”; for `O=C(O)CNC(=O)c1ccccc1I` it is inactive: -10.3%; for `CCN1CCN(C(=O)Cn2c(-c3cccs3)cc3ccccc32)CC1` it is inactive: -7.37%. As to `COc1nc(-c2ccccc2)ccc1-c1noc(-c2ccccc2Br)n1`, the “activity change, positive = activation” value was inactive: -3.6%.

As to `COc1ccc(CCNC(=O)c2ccc3c(c2)N(Cc2ccccc2F)C(=O)c2ccccc2S3=O)cc1OC` (stereo not drawn), the “activity change, positive = activation” value was inactive: -20.9%. To `CCOc1ccccc1CNC(=O)CCc1c(C)nn(-c2ccc(N3CCOCC3)nn2)c1C` belongs inactive: -13.9%; to `O=C(CN1C(=O)COc2ccc(S(=O)(=O)N3CCCC3)cc21)N1CCN(c2cccc(C(F)(F)F)c2)CC1`, inactive: -32.9%; to `COc1ccc(N2CCN(S(=O)(=O)CCNC(=O)COc3ccccc3F)CC2)cc1`, inactive: -9.93%. As for `CCN(CC)S(=O)(=O)c1ccc(C(=O)NCCSc2c(-c3ccc(C)cc3)[nH]c3ccccc23)cc1`, the “activity change, positive = activation” value is inactive: -25.7%. Turning to `Cc1c(Cl)cccc1-n1ncc(C(=O)NCc2cccs2)c1C1CCN(C(=O)OC(C)(C)C)CC1`, the “activity change, positive = activation” value was inactive: -31.9%. To `COC(=O)c1c(NC(=O)c2cc(OC)c(OC)c(OC)c2Br)sc2c1CCC(C)C2` (stereo not drawn) belongs inactive: 15.7% [at 11.5 µM, percent change from vehicle, -100% = no light]; to `COc1cc(C2c3c(-c4ccc(C)cc4)n[nH]c3C(=O)N2c2ccc(F)cc2)ccc1O` (stereo not drawn), inactive: -54.9%. `Cc1cccc(NC(=O)c2cc(S(=O)(=O)N3CCN(c4ccccc4F)CC3)ccc2F)c1C`: the “activity change, positive = activation” value is inactive: -24.9%. With `COc1ccc(CNC(=O)CCn2nc(C)c3c(C)n(-c4ccccc4)nc3c2=O)c(OC)c1`, the “activity change, positive = activation” value was inactive: 2.68%. Regarding `CNC(=O)Cn1c(=O)c2cccn2c2ccc(F)cc21`, the “activity change, positive = activation” value was inactive: 6.31%. To `CC(C)CNc1ncnc2c1nnn2C` belongs inactive: 5.96%. The figure for `O=C(CCNS(=O)(=O)c1cccc2nsnc12)NCc1ccccc1` is inactive: -1.36%; for `COc1ccc(CNC(=O)c2ccc3nc(CCc4ccccc4)oc3c2)c(OC)c1` it is inactive: 5.73%; for `CCOc1ccccc1NC(=O)Cn1c(=O)n(Cc2ccco2)c(=O)c2ccc(C(=O)NC3CCCC3)cc21` it is inactive: -19%.

Take `COc1ccc(Cl)cc1NC(=O)Cn1nc(Cc2ccncc2)c2ccccc2c1=O`: the “activity change, positive = activation” value was inactive: -18.4%.

For the compound `CCc1ccccc1NC(=O)C1CCN(C(=O)N2CC(C)Oc3ccc(Cl)cc32)CC1` (stereo not drawn), the “activity change, positive = activation” value was inactive: -18.9%.

Regarding `COc1ccccc1NC(=O)N1CCC(CN2CCc3ccccc3C2)CC1`, the “activity change, positive = activation” value is inactive: 12.7%.

Take `Cc1cc(F)ccc1NC1(c2ccccc2)C(=O)c2ccccc2C1=O`: the “activity change, positive = activation” value is inactive: -13.1%. With `Cc1ccc(OC(=O)CSc2nnc(-c3cccs3)o2)cc1C`, the “activity change, positive = activation” value was inactive: -2.7%. On to `CCn1cc(C(=O)NCCc2ccc(OC)c(OC)c2)c(=O)c2cc(S(=O)(=O)N3CCC(C)CC3)ccc21`, for which the “activity change, positive = activation” value is inactive: -11.5%.

For `CCOc1ccc(-n2c(SCC(=O)N3CCCCCC3)nc3c([nH]c4ccccc43)c2=O)cc1`, the “activity change, positive = activation” value is inactive: -10.5%.

Regarding `CCOc1ccc(N(CC(=O)Nc2ccccc2CC)S(=O)(=O)c2c(C)[nH]c(=O)[nH]c2=O)cc1`, the activity change, positive = activation is inactive: 0.457% [at 11.5 µM, percent change from vehicle, -100% = no light]. With `Cc1ccc(NC(=O)Cn2c(=O)oc3ccccc32)cc1C`, the “activity change, positive = activation” value was inactive: -12.6%.

Turning to `CC(C)(C)C1CCc2c(sc3nnn(CCOc4ccccc4)c(=O)c23)C1` (stereo not drawn), the “activity change, positive = activation” value was inactive: 9.7%. The figure for `Cc1ccc(C)c(NC(=O)c2nn(C)c3c2CS(=O)(=O)c2ccccc2-3)c1` is inactive: -6.65%.

As to `COc1cc(/C=C/c2nc(C#N)c(NCCc3ccccc3)o2)cc(OC)c1OC`, the “activity change, positive = activation” value was inactive: -24.6%.

Turning to `COc1cc(NC(=O)c2nc3ccccc3nc2N2CCCCC2)cc(OC)c1OC`, the “activity change, positive = activation” value was inactive: -5.56%. Consider `Cc1ccc(CNC(=O)c2ccc(-c3nc(CS(=O)c4ccccc4)c(C)o3)cc2)cc1` (stereo not drawn), for which the “activity change, positive = activation” value is inactive: 2.92%. The figure for `Cc1cccc(-c2nc(CSCC(=O)NCCc3ccc(Cl)cc3)c(C)o2)c1` is inactive: -23.1%. To `Cc1ccc(-c2nn(CC(=O)NC3CCCC3)c3c2cnc2ccccc23)cc1` belongs inactive: 3.12%; to `Cc1ccc(C)c(NC(=O)CN2C(=O)c3cccnc3Oc3ccc(C)cc32)c1`, inactive: -18.3%; to `O=C1N(c2ccccc2)c2ccccc2C1(Cc1ccncc1)Cc1ccncc1`, “inactive”. To `COCCn1ccc2c(OCC(=O)Nc3ccccc3F)cccc2c1=O` belongs inactive: 12.5%; to `CCOC(=O)N1CCc2c(sc3c2c(=O)n(CCc2ccccc2)c(=O)n3CC(=O)Nc2cccc(C)c2)C1`, inactive: -21.2%; to `COc1ccc(OC)c(C2C(C(=O)N3CCCCC3)=C(C)Nc3nc4ccccc4n32)c1` (stereo not drawn), inactive: -14.3%. Turning to `N#C/C(=C/c1cn(Cc2ccccc2Cl)c2ccccc12)C(=O)Nc1cccc(Cl)c1`, the activity change, positive = activation was inactive: 16.6% [at 11.5 µM, percent change from vehicle, -100% = no light]. The figure for `CC(C)(C)c1ccc(CN(Cc2ccco2)c2cnc(S(C)(=O)=O)nc2C(=O)Nc2ccc(F)cc2)cc1` is inactive: -15.1%.

These data come from PubChem BioAssay AID1508624 (National Center for Advancing Translational Sciences (NCATS), 2021).
